Results reported in article PMC4336329 (PLoS ONE, 2015).
The campaign covered roughly 310,000 compounds. About 2,200 (0.71%) showed an effect of 50% or more. The effect is printed as a negative number. The list shows a part of the results.

What follows are compounds tested against human ether-à-go-go-related gene (hERG) potassium channel (human, UniProt Q12809) (assay: primary screen, population patch clamp on CHO cells stably expressing hERG).
Sequence of human ether-à-go-go-related gene (hERG) potassium channel (Q12809 whole entry, looked up): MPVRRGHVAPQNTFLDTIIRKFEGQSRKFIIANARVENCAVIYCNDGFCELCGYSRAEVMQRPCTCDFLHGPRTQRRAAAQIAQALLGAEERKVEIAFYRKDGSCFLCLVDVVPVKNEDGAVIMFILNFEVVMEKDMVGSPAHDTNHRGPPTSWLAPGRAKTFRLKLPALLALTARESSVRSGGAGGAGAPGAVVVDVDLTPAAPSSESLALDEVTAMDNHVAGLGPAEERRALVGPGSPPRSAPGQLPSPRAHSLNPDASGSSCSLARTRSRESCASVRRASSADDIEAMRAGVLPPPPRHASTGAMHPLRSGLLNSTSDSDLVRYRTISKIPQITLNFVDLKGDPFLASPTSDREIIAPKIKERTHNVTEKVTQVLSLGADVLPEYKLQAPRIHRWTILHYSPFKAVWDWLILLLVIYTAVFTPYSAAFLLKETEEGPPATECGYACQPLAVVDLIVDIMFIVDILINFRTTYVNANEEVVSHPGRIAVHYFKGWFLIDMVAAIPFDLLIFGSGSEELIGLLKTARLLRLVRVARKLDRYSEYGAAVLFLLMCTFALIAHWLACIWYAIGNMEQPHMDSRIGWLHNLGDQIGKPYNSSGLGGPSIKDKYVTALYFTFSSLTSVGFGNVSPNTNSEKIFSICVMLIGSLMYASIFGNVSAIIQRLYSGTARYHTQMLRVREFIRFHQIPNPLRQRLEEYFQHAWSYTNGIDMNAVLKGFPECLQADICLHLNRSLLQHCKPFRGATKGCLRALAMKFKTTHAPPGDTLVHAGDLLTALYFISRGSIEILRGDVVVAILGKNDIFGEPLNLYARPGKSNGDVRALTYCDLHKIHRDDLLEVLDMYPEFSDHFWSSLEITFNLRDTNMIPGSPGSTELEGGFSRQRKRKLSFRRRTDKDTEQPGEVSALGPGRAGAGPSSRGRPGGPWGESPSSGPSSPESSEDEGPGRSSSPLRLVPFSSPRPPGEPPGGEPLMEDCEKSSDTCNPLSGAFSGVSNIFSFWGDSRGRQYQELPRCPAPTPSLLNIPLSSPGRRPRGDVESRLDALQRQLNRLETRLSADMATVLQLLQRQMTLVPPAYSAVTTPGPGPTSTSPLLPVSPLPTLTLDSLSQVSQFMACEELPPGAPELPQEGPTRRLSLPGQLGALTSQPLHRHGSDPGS

SMILES	hERG current change (%, negative = inhibition) at 1uM
CNS(=O)(=O)c1cccc(C(=O)OCC(=O)N(CCC#N)c2ccccc2)c1	13.3%
CC(=O)c1cc(-c2ccccc2)n(CC(=O)N2CCN(C3CCCC3)CC2)c1C	3.41%
CCOC(=O)C(=CNc1cc(Cl)c(-c2ccco2)c(Cl)c1)C(=O)OCC	5.64%
N#CCSc1nc2ccccc2c(=O)n1CCC(=O)NCCc1ccccc1	16.2%
O=C1C(=O)N(CCCN2CCOCC2)C(c2ccc([N+](=O)[O-])cc2)/C1=C(\O)c1ccc2c(c1)OCCO2 (centres unmarked)	5.45%
CCCN(C(=O)/C=C/c1ccco1)c1c(N)n(Cc2ccccc2)c(=O)[nH]c1=O	19.2%
N#Cc1c2n(c(=O)[nH]c1=O)CCCCC2	13.7%
CCOC(=O)C1CCCN(S(=O)(=O)CCNC(=O)c2ccccc2)C1 (centres unmarked)	7.73%
O=C(NCCN1CCCCC1)Nc1ccc(Br)cc1	-9.32%
C/C(=N\NC(N)=O)c1cccc(Cl)c1	13.1%
COc1ccc(/C=N/n2nnnc2N)cc1OC	14.7%
COc1ccc(NS(=O)(=O)c2ccc(NC(=S)NC(=O)c3ccc(F)cc3)cc2)nn1	1.47%
COC(=O)c1ccc(NC(=O)CN2C(=O)c3ccccc3S2(=O)=O)cc1	16.9%
O=C(CCNC(=O)c1ccc(Br)cc1)NNC(=O)C1COc2ccccc2O1 (centres unmarked)	-8.34%
c1ccc(N2CCN(c3nc(-c4cccs4)nc4ccccc34)CC2)cc1	4.12%
CCN(CC)S(=O)(=O)c1ccc(NC2c3ccccc3C(=O)N2Cc2ccco2)cc1 (centres unmarked)	9.64%
COC(CNC(=O)c1c[nH]c2ccc(S(=O)(=O)N(C)c3ccc(F)cc3)cc2c1=O)OC	11.7%
COc1cc2cc(CCOC(=O)c3ccc(C#N)cc3)oc(=O)c2cc1OC	-4.07%
CC1(C)CC(NC(=O)c2cc([N+](=O)[O-])cc([N+](=O)[O-])c2)CC(C)(C)N1	16.7%
NC(=O)C1(N2CCCCC2)CCN(C(=S)NC2CCCC2)CC1	11.2%
Nc1c(C(=O)NCC2CCCO2)c2nc3ccccc3nc2n1Cc1ccco1 (centres unmarked)	13.5%
Cc1ccc(C(C(=O)NC2CCCC2)N(C(=O)CNC(=O)c2ccco2)c2ccccc2)o1 (centres unmarked)	-1.97%

SMILES	hERG current change (%, negative = inhibition) at 1uM
Cc1ccc(C(=O)OC(C)C(=O)N(C)C2CCCCC2)cc1S(=O)(=O)N1CCCCC1 (centres unmarked)	12.3%
Cc1[nH]n(C)c(=O)c1N=Nc1ccc(S(C)(=O)=O)cc1	2.01%
CCC(C)(C)n1nnnc1C(c1cc2ccc(OC)cc2[nH]c1=O)N1CCCCC1 (centres unmarked)	-13%
COc1ccc(CCNC(=O)c2cc3cc(F)ccc3nc2C)cc1OC	22.4%
COCCn1nnnc1C(c1ccc(OC)c(OC)c1)N1CCN(C(=O)c2ccco2)CC1 (centres unmarked)	8.77%
CN=C1S/C(=C\c2c(OC)cc(OC)cc2OC)C(=O)N1C	18.5%
O=C(c1ccccc1)c1cnc(Nc2ccccc2Cl)s1	-1.88%
Cc1ccc(-c2nnn(CC(=O)N(c3ccc4c(c3)OCCO4)C(C(=O)NCC3CCCO3)c3ccc(F)cc3)n2)o1 (centres unmarked)	10.9%
Cc1ccccc1OCC(=O)NC1=NCCS1	2.77%
O=C1NCC(COCc2ccccc2)O1 (centres unmarked)	5.8%
Cn1c(=O)cc(SCC(=O)NCCN2CCN(c3ccccc3F)CC2)c2cc(Cl)ccc21	5.42%
CC1(C)Cc2cccc(OCC(=O)NCc3ccc(F)cc3)c2O1	0.591%
C/C(=N\O)c1ccco1	14.9%
Cc1ccc(S(=O)(=O)c2cn(CC(=O)Nc3ccccc3)c3ccc(F)cc3c2=O)cc1	9.84%
COc1ccc(C(=O)CC(=O)C(=O)Nc2cc([N+](=O)[O-])ccc2OC)cc1	13.4%
Cc1ccccc1-n1c2nc(=O)n(C)c(=O)c-2cc2ccccc21	18.5%
O=C(NCC(=O)N1CCN(S(=O)(=O)c2ccccc2C(F)(F)F)CC1)c1sc2ccccc2c1Cl	7.87%
O=C(Nc1ccccc1F)Nc1ccccc1Br	4.62%
Cc1nc(N)c(Cc2ccccc2F)c(N)n1	5.7%
CCN1C(=O)N/C(=C/c2ccc(Sc3ccc(C)cc3)o2)C1=O	14.4%
COc1ccc(S(=O)(=O)N(C)CC(=O)NCC2CCCO2)cc1OC (centres unmarked)	13.3%
Cl.O=C(c1cccc(S(=O)(=O)N2CCOCC2)c1)N1CCN(Cc2ccc3c(c2)OCO3)CC1	0.32%
